{"source": "patent US20210290921A1", "about": "(priority 2017, published 2021)", "molecules": {"B1": {"name": "ovalbumin (protein, UniProt P01012 2-386, looked up)", "Ovalbumin": "GSIGAASMEFCFDVFKELKVHHANENIFYCPIAIMSALAMVYLGAKDSTRTQINKVVRFDKLPGFGDSIEAQCGTSVNVHSSLRDILNQITKPNDVYSFSLASRLYAEERYPILPEYLQCVKELYRGGLEPINFQTAADQARELINSWVESQTNGIIRNVLQPSSVDSQTAMVLVNAIVFKGLWEKAFKDEDTQAMPFRVTEQESKPVQMMYQIGLFRVASMASEKMKILELPFASGTMSMLVLLPDEVSGLEQLESIINFEKLTEWTSSNVMEERKIKVYLPRMKMEEKYNLTSVLMAMGITDVFSSSANLSGISSAESLKISQAVHAAHAEINEAGREVVGSAEAGVDAASVSEEFRADHPFLFCIKHIATNAVLFFGRCVSP", "notes": "a commonly studied model antigen; endotoxin-free OVA (EndoFit, Invivogen)"}}, "test_system": "SKH1-Elite mice", "conditions": "mouse, in vivo", "data": [{"molecule": "B1", "values": [{"measurement": "peak OVA-specific IgG titer", "value": "12±4", "unit": "log 2"}]}]}
